# The supplement of paper PMC8728848
# This is one part of the list.
# Key:
# Experiment in all cases: glycan array binding signal (z-score within array); higher = stronger binding
# Details in all cases: glycan notation: IUPAC condensed, linker removed
# [1] = target: Neu5Ac(a2-3)Gal(b1-3)GlcNAc6S
# Outline: (§1)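 Columns mapping to the same glycan were averaged after glycan names were converted to IUPAC-condensed notation. The data come from 3228 arrays in the Consortium for Functional Glycomics database, limited to those with an available protein sequence. Binding is reported as a within-array Z-score averaged across arrays of one protein sequence and across linkers.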
# [2] = target: Neu5Ac(a2-3)Gal(b1-3)[Fuc(a1-4)]GlcNAc
# Outline: as §1
# [3] = target: Neu5Ac(a2-3)Gal(b1-3)[Fuc(a1-4)]GlcNAc(b1-3)Gal(b1-3)[Fuc(a1-4)]GlcNAc
# Outline: as §1
# [4] = target: Neu5Ac(a2-3)Gal(b1-3)[Fuc(a1-4)]GlcNAc(b1-3)Gal(b1-4)[Fuc(a1-3)]GlcNAc
# Outline: as §1
# [5] = target: Neu5Ac(a2-3)Gal(b1-3)[GlcNAc(b1-6)]GalNAc
# Outline: as §1
# [6] = target: Neu5Ac(a2-3)Gal(b1-3)[Neu5Ac(a2-6)]GalNAc
# Outline: as §1
# [7] = target: Neu5Ac(a2-3)Gal(b1-3)[Neu5Ac(a2-6)]GlcNAc(b1-3)[Fuc(a1-3)[Gal(b1-4)]GlcNAc(b1-6)]Gal(b1-4)Glc
# Outline: as §1
# [8] = target: Neu5Ac(a2-3)Gal(b1-3)]Neu5Ac(a2-3)Gal(b1-4)]GlcNAc
# Outline: as §1
# [9] = target: Neu5Ac(a2-3)Gal(b1-4)Glc
# Outline: as §1
# [10] = target: Neu5Ac(a2-3)Gal(b1-4)GlcNAc
# Outline: as §1
# [11] = target: Neu5Ac(a2-3)Gal(b1-4)GlcNAc(b1-2)Man
# Outline: as §1
# [12] = target: Neu5Ac(a2-3)Gal(b1-4)GlcNAc(b1-2)Man(a1-3)[GlcNAc(b1-4)][Neu5Ac(a2-3)Gal(b1-4)GlcNAc(b1-2)Man(a1-6)]Man(b1-4)GlcNAc(b1-4)GlcNAc
# Outline: as §1
# [13] = target: Neu5Ac(a2-3)Gal(b1-4)GlcNAc(b1-2)Man(a1-3)[Neu5Ac(a2-3)Gal(b1-4)GlcNAc(b1-2)Man(a1-6)]Man(b1-4)GlcNAc(b1-4)GlcNAc
# Outline: as §1
# [14] = target: Neu5Ac(a2-3)Gal(b1-4)GlcNAc(b1-2)Man(a1-3)[Neu5Ac(a2-3)Gal(b1-4)GlcNAc(b1-2)Man(a1-6)]Man(b1-4)GlcNAc(b1-4)[Fuc(a1-6)]GlcNAc
# Outline: as §1
# [15] = target: Neu5Ac(a2-3)Gal(b1-4)GlcNAc(b1-2)Man(a1-3)[Neu5Ac(a2-6)Gal(b1-4)GlcNAc(b1-2)Man(a1-6)]Man(b1-4)GlcNAc(b1-4)GlcNAc
# Outline: as §1
# [16] = target: Neu5Ac(a2-3)Gal(b1-4)GlcNAc(b1-2)[Neu5Ac(a2-3)Gal(b1-4)GlcNAc(b1-4)]Man(a1-3)[GlcNAc(b1-4)][Neu5Ac(a2-3)Gal(b1-4)GlcNAc(b1-2)[Neu5Ac(a2-3)Gal(b1-4)GlcNAc(b1-6)]Man(a1-6)]Man(b1-4)GlcNAc(b1-4)GlcNAc
# Outline: as §1
# [17] = target: Neu5Ac(a2-3)Gal(b1-4)GlcNAc(b1-2)[Neu5Ac(a2-3)Gal(b1-4)GlcNAc(b1-4)]Man(a1-3)[GlcNAc(b1-4)][Neu5Ac(a2-3)Gal(b1-4)GlcNAc(b1-4)Man(a1-6)]Man(b1-4)GlcNAc(b1-4)GlcNAc
# Outline: as §1
# [18] = target: Neu5Ac(a2-3)Gal(b1-4)GlcNAc(b1-2)[Neu5Ac(a2-3)Gal(b1-4)GlcNAc(b1-6)]Man(a1-6)[Neu5Ac(a2-3)Gal(b1-4)GlcNAc(b1-2)Man(a1-3)][GlcNAc(b1-4)]Man(b1-4)GlcNAc(b1-4)GlcNAc
# Outline: as §1
# [19] = target: Neu5Ac(a2-3)Gal(b1-4)GlcNAc(b1-3)Gal
# Outline: as §1
# [20] = target: Neu5Ac(a2-3)Gal(b1-4)GlcNAc(b1-3)Gal(b1-3)GlcNAc
# Outline: as §1
# [21] = target: Neu5Ac(a2-3)Gal(b1-4)GlcNAc(b1-3)Gal(b1-4)GlcNAc
# Outline: as §1
# [22] = target: Neu5Ac(a2-3)Gal(b1-4)GlcNAc(b1-3)Gal(b1-4)GlcNAc(b1-2)Man(a1-3)[Neu5Ac(a2-3)Gal(b1-4)GlcNAc(b1-3)Gal(b1-4)GlcNAc(b1-2)Man(a1-6)]Man(b1-4)GlcNAc(b1-4)GlcNAc
# Outline: as §1
# [23] = target: Neu5Ac(a2-3)Gal(b1-4)GlcNAc(b1-3)Gal(b1-4)GlcNAc(b1-3)Gal(b1-4)GlcNAc
# Outline: as §1
# [24] = target: Neu5Ac(a2-3)Gal(b1-4)GlcNAc(b1-3)Gal(b1-4)GlcNAc(b1-3)Gal(b1-4)GlcNAc(b1-2)Man(a1-3)[Neu5Ac(a2-3)Gal(b1-4)GlcNAc(b1-3)Gal(b1-4)GlcNAc(b1-3)Gal(b1-4)GlcNAc(b1-2)Man(a1-6)]GalNAc
# Outline: as §1
# [25] = target: Neu5Ac(a2-3)Gal(b1-4)GlcNAc(b1-3)Gal(b1-4)GlcNAc(b1-3)GalNAc
# Outline: as §1
# [26] = target: Neu5Ac(a2-3)Gal(b1-4)GlcNAc(b1-3)Gal(b1-4)GlcNAc(b1-3)[Neu5Ac(a2-3)Gal(b1-4)GlcNAc(b1-3)Gal(b1-4)GlcNAc(b1-6)]GalNAc
# Outline: as §1
# [27] = target: Neu5Ac(a2-3)Gal(b1-4)GlcNAc(b1-3)Gal(b1-4)GlcNAc(b1-6)[Gal(b1-3)]GalNAc
# Outline: as §1
# [28] = target: Neu5Ac(a2-3)Gal(b1-4)GlcNAc(b1-3)Gal(b1-4)[Fuc(a1-3)]GlcNAc
# Outline: as §1
# [29] = target: Neu5Ac(a2-3)Gal(b1-4)GlcNAc(b1-3)GalNAc
# Outline: as §1
# [30] = target: Neu5Ac(a2-3)Gal(b1-4)GlcNAc(b1-3)[Neu5Ac(a2-3)Gal(b1-4)GlcNAc(b1-6)]GalNAc
# Outline: as §1
# [31] = target: Neu5Ac(a2-3)Gal(b1-4)GlcNAc(b1-6)GalNAc
# Outline: as §1
# [32] = target: Neu5Ac(a2-3)Gal(b1-4)GlcNAc(b1-6)[Gal(b1-3)]GalNAc
# Outline: as §1
# [33] = target: Neu5Ac(a2-3)Gal(b1-4)GlcNAc(b1-6)[Neu5Ac(a2-3)Gal(b1-3)]GalNAc
# Outline: as §1
# [34] = target: Neu5Ac(a2-3)Gal(b1-4)GlcNAc6S
# Outline: as §1
# [35] = target: Neu5Ac(a2-3)Gal(b1-4)[Fuc(a1-3)]GlcNAc
# Outline: as §1
# [36] = target: Neu5Ac(a2-3)Gal(b1-4)[Fuc(a1-3)]GlcNAc(b1-2)Man
# Outline: as §1
# [37] = target: Neu5Ac(a2-3)Gal(b1-4)[Fuc(a1-3)]GlcNAc(b1-3)Gal
# Outline: as §1
# [38] = target: Neu5Ac(a2-3)Gal(b1-4)[Fuc(a1-3)]GlcNAc(b1-3)Gal(b1-4)GlcNAc
# Outline: as §1
# [39] = target: Neu5Ac(a2-3)Gal(b1-4)[Fuc(a1-3)]GlcNAc(b1-3)Gal(b1-4)[Fuc(a1-3)]GlcNAc(b1-3)Gal(b1-4)[Fuc(a1-3)]GlcNAc
# Outline: as §1
# [40] = target: Neu5Ac(a2-3)Gal(b1-4)[Fuc(a1-3)]GlcNAc(b1-3)GalNAc
# Outline: as §1
# [41] = target: Neu5Ac(a2-3)Gal(b1-4)[Fuc(a1-3)]GlcNAc(b1-6)[Gal(b1-3)]GalNAc
# Outline: as §1
# [42] = target: Neu5Ac(a2-3)Gal(b1-4)[Fuc(a1-3)]GlcNAc(b1-6)[Neu5Ac(a2-3)Gal(b1-3)]GalNAc
# Outline: as §1
# [43] = target: Neu5Ac(a2-3)Gal(b1-4)[Fuc(a1-3)]GlcNAc6S
# Outline: as §1
# [44] = target: Neu5Ac(a2-3)Gal6S(b1-4)GlcNAc
# Outline: as §1
# [45] = target: Neu5Ac(a2-3)Gal6S(b1-4)[Fuc(a1-3)]GlcNAc
# Outline: as §1
binder,measurement,setting,value
diCBM40 CPF071 (Clostridium perfringens) (protein) MAHHHHHHVGTGSNDDDDKSPDPMLSSLGEYKDINLESSNASNITYDLEKYKNLDEGTIVVRFNSKDSKIQSLLGISNSKTKNGYFNFYVTNSRVGFELRNQKNEGNTQNGTENLVHMYKDVALNDGDNTVALKIEKNKGYKLFLNGKMIKEVKDTNTKFLNNIENLDSAFIGKTNRYGQSNEYNFKGNIGFMNIYNEPLGDDYLLSKTGETKALNGSELGSGSGLSSLGEYKDINLESSNASNITYDLEKYKNLDEGTIVVRFNSKDSKIQSLLGISNSKTKNGYFNFYVTNSRVGFELRNQKNEGNTQNGTENLVHMYKDVALNDGDNTVALKIEKNKGYKLFLNGKMIKEVKDTNTKFLNNIENLDSAFIGKTNRYGQSNEYNFKGNIGFMNIYNEPLGDDYLLSKTGETK,glycan array binding signal (z-score),[1],-0.155
same,glycan array binding signal (z-score),[2],4.37
same,glycan array binding signal (z-score),[3],-0.094
same,glycan array binding signal (z-score),[4],-0.047
same,glycan array binding signal (z-score),[5],0.073
same,glycan array binding signal (z-score),[6],0.81
same,glycan array binding signal (z-score),[7],-0.254
same,glycan array binding signal (z-score),[8],8.45
same,glycan array binding signal (z-score),[9],1.35
same,glycan array binding signal (z-score),[10],4.46
same,glycan array binding signal (z-score),[11],-0.288
same,glycan array binding signal (z-score),[12],-0.074
same,glycan array binding signal (z-score),[13],1.89
same,glycan array binding signal (z-score),[14],5.75
same,glycan array binding signal (z-score),[15],-0.116
same,glycan array binding signal (z-score),[16],1.34
same,glycan array binding signal (z-score),[17],0.36
same,glycan array binding signal (z-score),[18],0.452
same,glycan array binding signal (z-score),[19],2.43
same,glycan array binding signal (z-score),[20],-0.095
same,glycan array binding signal (z-score),[21],4.06
same,glycan array binding signal (z-score),[22],-0.325
same,glycan array binding signal (z-score),[23],5.87
same,glycan array binding signal (z-score),[24],-0.212
same,glycan array binding signal (z-score),[25],-0.157
same,glycan array binding signal (z-score),[26],0.025
same,glycan array binding signal (z-score),[27],-0.225
same,glycan array binding signal (z-score),[28],-0.264
same,glycan array binding signal (z-score),[29],-0.147
same,glycan array binding signal (z-score),[30],0.017
same,glycan array binding signal (z-score),[31],-0.026
same,glycan array binding signal (z-score),[32],-0.268
same,glycan array binding signal (z-score),[33],0.191
same,glycan array binding signal (z-score),[34],7.8
same,glycan array binding signal (z-score),[35],1.7
same,glycan array binding signal (z-score),[36],0.06
same,glycan array binding signal (z-score),[37],3.06
same,glycan array binding signal (z-score),[38],2.04
same,glycan array binding signal (z-score),[39],0.119
same,glycan array binding signal (z-score),[40],-0.274
same,glycan array binding signal (z-score),[41],-0.235
same,glycan array binding signal (z-score),[42],-0.175
same,glycan array binding signal (z-score),[43],5.95
same,glycan array binding signal (z-score),[44],7.24
same,glycan array binding signal (z-score),[45],4.71
